From the antibiotic and cytotoxicity screens of Wong et al. (2023)
The other results are listed elsewhere or left out.

What was measured:
HSkMC = human skeletal muscle cells; assay: cytotoxicity call (relative viability < 0.9); conditions: 10 µM
HepG2 = assay: cytotoxicity call (relative viability < 0.9); conditions: 10 µM
S. aureus RN4220 = assay: growth inhibition call (relative growth <= 0.2); conditions: 50 µM

SMILES	cytotoxicity call (HSkMC)	cytotoxicity call (HepG2)	growth inhibition call (S. aureus RN4220)
CC(C)CN(C(=O)COC(=O)c1c2c(nc3ccccc13)CCC2)c1c(N)n(Cc2ccccc2)c(=O)[nH]c1=O	inactive	inactive	inactive
COc1ccc(S(=O)(=O)N2C[C@@H](O)COC[C@@H]3O[C@H](CC(=O)NCc4ccc(Cl)c(Cl)c4)CC[C@H]32)cc1	inactive	inactive	inactive
O=C(CS)NCCCCCCNC(=O)[C@H]1C[C@H]2C(=O)NCC(=O)N2[C@H]1c1ccc(O)cc1	inactive	inactive	inactive
C[C@@H]1CN([C@H](C)CO)C(=O)c2c(c3ccccc3n2C)-c2ccccc2CO[C@@H]1CN(C)Cc1ccccc1	inactive	active	inactive
C[C@H]1CCCCO[C@@H](CN(C)C(=O)CCCN(C)C)[C@@H](C)CN([C@@H](C)CO)C(=O)c2cc(NC(=O)Nc3ccc(F)cc3)ccc2O1	inactive	inactive	inactive
CC(=O)OC1CC2C(C)(C)C(=O)CCC2(C)C2CCC3(C)C(c4ccoc4)OC(=O)C4OC43C12C (stereo not given)	inactive	inactive	inactive
Cc1ccc(S(=O)(=O)N(C)C[C@H]2Oc3ccc(NC(=O)NC(C)C)cc3CC(=O)N([C@@H](C)CO)C[C@H]2C)cc1	inactive	inactive	inactive
COC(=O)c1cn(CC(=O)O)nn1	inactive	inactive	inactive
Cc1noc(C)c1NC(=O)Nc1ccc2c(c1)C(=O)N([C@H](C)CO)C[C@@H](C)[C@H](CN(C)S(C)(=O)=O)O2	inactive	inactive	inactive
C[C@H]1CN([C@@H](C)CO)C(=O)CCCn2nncc2CO[C@H]1CN(C)C(=O)Nc1ccc2c(c1)OCO2	inactive	inactive	inactive
